Measured values reported in PubChem BioAssay AID463173 (ICCB-Longwood Screening Facility, Harvard Medical School, 2010).
The campaign covered roughly 52,000 compounds. About 4,300 (8.3%) were called active. No stated cut-off is given here; in the data, active means survival mostly below about 52% (no sharp cut-off); inactive means mostly above about 56%. The list shows a part of the results.

System: DeltatarO mutant
Assay: S. aureus survival, RN4220 and DeltatarO strains – OD600, teichoic acid synthesis inhibitors, primary screen (AID 463173)
Details: S. aureus RN4220 wild type/DeltatarO growth, OD600, 18 h, stronger effect = lower value, screened at 18.75 µg/mL (by protocol)

Row | SMILES | survival
1 | CCS(=O)(=O)c1ncc(Cl)c(C(=O)N(Cc2ccccc2)Cc2ccco2)n1 | inactive: 52%
2 | O=S1(=O)CCC(c2ccccc2)C1 (stereo not given) | inactive: 77%
3 | COc1cccc(CNC(=O)CSc2ncc(S(=O)(=O)c3ccc(C)c(Cl)c3)c(=O)[nH]2)c1 | inactive: 69%
4 | CCn1cc(C(=O)NCCc2ccc(OC)c(OC)c2)c(=O)c2cc(S(=O)(=O)N3CCc4ccccc4C3)ccc21 | inactive: 78%
5 | COc1ccc(-c2nc(CN3CCC(C(=O)NCCN(CC(C)C)CC(C)C)CC3)c(C)o2)cc1OC | inactive: 128%
6 | COc1ccccc1C(=O)Nc1ccccc1-c1nnn(CC(=O)N2CCN(c3ccc(F)cc3)CC2)n1 | inactive: 83%
7 | CC(C)(C)C(=O)OCc1cc(=O)n2nc(C3CCCCC3)sc2n1 | inactive: 80%
8 | Cc1ccc(C)c(CN2C(=O)c3ccccc3Sc3ccc(C(=O)NC4CCCC4)cc32)c1 | inactive: 128%
9 | COc1ccc(NC(=O)c2c(C)oc3ccc(O)c(CN4CCCC(C)C4)c23)cc1Cl (stereo not given) | active: 52%
10 | Cc1ccc(-n2ncc(C(=O)N3CCc4ccccc4C3)c2C2CCN(C(=O)OC(C)(C)C)CC2)cc1C | inactive: 76%
11 | Cc1ccc(N2CCN(C(=O)CCc3c(C)nc4ncnn4c3C)CC2)c(C)c1 | inactive: 91%
12 | Cc1ccc(S(=O)(=O)c2cn(C)c3cc(N4CCCC4)c(F)cc3c2=O)c(C)c1 | inactive: 67%
13 | CCc1ccc(NC(=O)c2cnn(-c3c(C)cccc3C)c2C2CCNCC2)cc1 | inactive: 89%
14 | CCOc1cc(C(=O)Nc2c(NC)c3ccccc3oc2=O)cc(OCC)c1OCC | inactive: 135%
15 | O=c1[nH][nH]c(=S)n2nc(-c3ccccc3)cc12 | inactive: 74%
16 | CN(C1CCCCC1)C(c1ccc(F)cc1)c1nnnn1C1CCCCC1 (stereo not given) | inactive: 83%
17 | Cc1ncc(CO)c2c1Oc1nc(-c3ccccc3F)nc(SCC(=O)N3CCCCC3)c1C2 | inactive: 67%
18 | COC(=O)c1cccc(S(=O)(=O)N2CCC(NC(=O)Nc3cccc(F)c3)CC2)c1 | inactive: 94%
19 | COc1ccc(NC(=O)CSc2nc3c(c(=O)[nH]2)CN(Cc2ccccc2)CC3)cc1Cl | inactive: 73%
20 | CCc1ccc(NC(=O)Cn2c(=O)n(Cc3ccccc3)c(=O)c3oc4ccccc4c32)cc1 | inactive: 71%
21 | COC(=O)c1ccc(OC)c(CSc2nnc(COc3cc(C)cc(C)c3)o2)c1 | inactive: 94%
22 | O=C(NS(=O)(=O)c1ccc(N=NN2CCOCC2)cc1)C12CC3CC(CC(C3)C1)C2 | inactive: 92%
23 | COc1cccc2cc(-c3nc(Cl)c4c5c(sc4n3)CC(C)CC5)c(=O)oc12 (stereo not given) | inactive: 68%
24 | O=C(NCCc1c[nH]c2ccccc12)Nc1ccccc1C(F)(F)F | inactive: 86%
25 | COC(=O)c1cc(NC(=O)Cn2ncc3c2-c2ccccc2OC3)cc(C(=O)OC)c1 | inactive: 72%
26 | CCN1CCCC1CN(Cc1cc2cc(OC)ccc2[nH]c1=O)C(=O)Nc1ccccc1 (stereo not given) | inactive: 91%
27 | Cc1cccc(CS(=O)(=O)CC2Nc3ccc(C(=O)NCc4ccccc4Cl)cc3NC2=O)c1 (stereo not given) | inactive: 77%
28 | COc1ccc2sc(N(Cc3cccnc3)C(=O)c3ccco3)nc2c1 | active: -2%

Row | SMILES | survival
29 | CCc1cccc(C)c1NC(=O)Nc1csc2c1CCCC2 | inactive: 72%
30 | CCOC(=O)c1ccc(N2C(=O)c3[nH]nc(-c4ccc(OC)cc4)c3C2c2ccc(C)cc2)cc1 (stereo not given) | inactive: 81%
31 | CCOCCCNC(=O)c1c(NC(=O)c2cc(=O)c3cc(C)c(C)cc3o2)sc2c1CCC2 | inactive: 113%
32 | CCOc1ccc(N2CC(c3nc4ccccc4n3CCC3CCCCC3)CC2=O)cc1 (stereo not given) | active: 33%
33 | COc1ccc(CN2C(=O)N(c3ccc(F)cc3)C(=O)C2CC(=O)Nc2ccccc2)cc1 (stereo not given) | inactive: 77%
34 | CC12COC3(C(=O)Nc4ccccc4)CC1CCC32C (stereo not given) | inactive: 100%
35 | CCCNC(=O)C1CCN(c2cc(C)nc3c(-c4ccc(OC)c(OC)c4)c(C)nn23)CC1 | inactive: 82%
36 | Cc1ccc(CCNc2nc3ccccc3c3nc(-c4ccccc4)nn23)cc1 | active: 44%
37 | Cc1oc(-c2ccc(Cl)cc2)nc1CSc1nnc(C)n2c1cc1sccc12 | inactive: 89%
38 | Cc1ccn2c(Nc3ccc4c(c3)OCO4)c(-c3ccco3)nc2c1 | inactive: 73%
39 | N#Cc1c(C(F)(F)F)cc(-c2cccs2)nc1SCC(=O)Nc1ccc(Cl)cc1 | inactive: 62%
40 | O=C(Cn1c(=O)n(Cc2ccc(F)cc2)c(=O)c2sc3ccccc3c21)NCc1ccccc1Cl | inactive: 95%
41 | COc1ccc(N2CCN(C(CNS(=O)(=O)c3c(C)cc(C)cc3C)c3ccco3)CC2)cc1 (stereo not given) | inactive: 80%
42 | Cc1ccc(-n2c(=O)c3c(C)c(C)sc3n(CC(=O)c3ccc(Cl)cc3)c2=O)cc1C | inactive: 53%
43 | Cc1ccc2c(c1)N(CC(=O)N1CCCc3ccccc31)C(=O)CO2 | inactive: 106%
44 | CCCn1c2ccccc2c2cnn(CC(=O)N(CCCOC(C)C)Cc3ccco3)c(=O)c21 | inactive: 87%
45 | COc1cc(C(=O)Nc2ccc(OCc3cc(=O)n4ccc(C)cc4n3)cc2)cc(OC)c1OC | active: 8%
46 | Cc1cc(NC(=O)CCC(=O)N(Cc2ccccc2)C2(C(=O)NC3CCCCC3)CCCC2)no1 | inactive: 95%
47 | CCOC1=CC2=C(CC(C)(C)CC2=O)OC1N(C)C (stereo not given) | inactive: 97%
48 | CC(C)(C)OC(=O)N1CCC(c2c(C(=O)NCCN3CCOCC3)cnn2-c2ccccc2)CC1 | inactive: 74%
49 | COc1ccc2oc(-c3ccc(C)c(NC(=O)c4ccc(N5CCCCC5)c([N+](=O)[O-])c4)c3)nc2c1 | inactive: 79%
50 | COc1ccc(CNC(=O)CN2CCSc3ccccc32)c(OC)c1 | inactive: 120%
51 | CCN(CC)C(=O)Cn1c(SCC(=O)Nc2ccc(C)c(C)c2)nc2ccccc21 | inactive: 128%
52 | COc1ccccc1NC(=O)C1=C(C)Nc2ncnn2C1c1ccc[nH]1 (stereo not given) | inactive: 126%
53 | CCOC(=O)c1c(Nc2ccccc2)nnc(-c2ccccc2)c1-c1ccccc1 | active: 6%
54 | O=C(Cn1c(=O)oc2ccccc21)NCc1ccc(Cl)cc1 | inactive: 95%
55 | CCN(c1ccccc1)S(=O)(=O)c1cc(C(=O)Nc2ccc(Br)cc2)ccc1F | active: 6%
